Results on 45 sequences are retold here after a collection of fitness landscapes (doi:10.1038/s41467-024-54723-y).

Whole data set: some 18,000 sequences, median “TetR repression strength (sort-seq, GFP reporter)” near 0.23, cut for the highest 2% near 0.68. Some of the results follow.

Chain of UniProt P04483 (P04483 whole entry): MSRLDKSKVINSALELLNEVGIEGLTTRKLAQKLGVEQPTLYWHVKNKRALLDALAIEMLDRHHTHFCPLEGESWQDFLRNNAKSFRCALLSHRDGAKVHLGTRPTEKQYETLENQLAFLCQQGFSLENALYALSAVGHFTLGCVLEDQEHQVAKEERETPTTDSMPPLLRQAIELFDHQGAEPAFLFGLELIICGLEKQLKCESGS

The assay has as its target TetR (class B, Tn10) (UniProt P04483). In words: TetR repression strength (sort-seq, GFP reporter) (relative to tetO2 = 1); higher = stronger repression. The following applies: E. coli. The method, boiled down:
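Escherichia coli SIG10-MAX cells carried a low-copy plasmid library in which eight operator positions were randomized between a constitutive promoter and sfGFP, and TetR was expressed constitutively. After 5 h of growth at 37 °C in LB with 50 µg/mL chloramphenicol, 10^6 cells were FACS-sorted into 13 fluorescence bins, and each bin was Illumina-sequenced. Repression strength was the top bin index plus one minus the read-weighted mean bin, divided by the value for the unaltered operator. Across three independent transformations, only library members with ≥30 reads in every replicate and a CV ≤0.5 were averaged.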
On to TCCCGGACAGTTTCTGAGA, for which the TetR repression strength is 0.312. As for TCCCAATGAGTCGCGGAGA, the figure is 0.246.

As to TCCCCCAAAGTGAGAGAGA, the TetR repression strength stood at 0.323. To TCCCATCGAGTTGCCGAGA belongs 0.198; to TCCCTTTGAGTTGGTGAGA, 0.0109; to TCCCGGGGAGTTACCGAGA, 0.0398. As for TCCCGGGAAGTGGACGAGA, the figure is 0.217; as for TCCCGGAGAGTCGTTGAGA, 0.118; as for TCCCGCTCAGTTTGCGAGA, 0.219. Take TCCCAACTAGTTCCAGAGA: the TetR repression strength is 0.457. To TCCCCGATAGTGTATGAGA belongs 0.553; to TCCCGCACAGTCATCGAGA, 0.3; to TCCCATCAAGTGTTTGAGA, 0.585. As for TCCCCTGAAGTATGGGAGA, the figure is 0.208; as for TCCCGGAGAGTCCGGGAGA, 0.254.

Consider TCCCGGTAAGTAAGAGAGA, for which the TetR repression strength came to 0.0325. The sequence TCCCTGGTAGTATGCGAGA came in with a TetR repression strength of 0.138.

In the case of TCCCTTACAGTTCATGAGA, the TetR repression strength came out at 0.298. Sequence TCCCAGGGAGTGGATGAGA yielded a TetR repression strength of 0.212.

As for TCCCCGACAGTAATTGAGA, the TetR repression strength turned out to be 0.148.

In turn, TCCCGGTGAGTTTCTGAGA had a TetR repression strength of 0.486. To TCCCTTCCAGTACACGAGA belongs 0.387; to TCCCTGAGAGTCTAGGAGA, 0.199; to TCCCATTTAGTGGGGGAGA, 0.228. TCCCGATCAGTATCAGAGA registered a TetR repression strength of 0.415. To TCCCTTGAAGTCAAAGAGA belongs 0.187; to TCCCGTGCAGTAGACGAGA, 0.299. As for TCCCCACAAGTGGGTGAGA, the figure is 0.0622. To TCCCGGATAGTGGTAGAGA belongs 0.204; to TCCCTGCAAGTGGTCGAGA, 0.247. TCCCGGGAAGTGTGCGAGA yielded a TetR repression strength of 0.206. As for TCCCGAGTAGTCGCGGAGA, the figure is 0.194; as for TCCCCTGGAGTGAGAGAGA, 0.18; as for TCCCTAGGAGTCCCAGAGA, 0.27. On to TCCCGATGAGTGGGGGAGA, for which the TetR repression strength worked out at 0.435.

For the sequence TCCCTTCGAGTGGCTGAGA, the TetR repression strength was 0.376. To TCCCATGTAGTTCGGGAGA belongs 0.241; to TCCCTTGGAGTGTGTGAGA, 0.225. The sequence TCCCGTAGAGTGGCGGAGA showed a TetR repression strength of 0.0664. To TCCCCTTTAGTAGTTGAGA belongs 0.166; to TCCCCATGAGTGGTGGAGA, 0.108. To TCCCCTGTAGTCGTGGAGA belongs 0.4. As for TCCCGTCTAGTCATAGAGA, the figure is 0.227; as for TCCCGTCTAGTCGTGGAGA, 0.446; as for TCCCATGCAGTGCGAGAGA, 0.263.
